Results on 56 molecules are retold here after publication PMC4336329 (PLoS ONE, 2015).

The structures appear in SMILES notation. The campaign covered roughly 310,000 compounds. About 2,200 (0.71%) showed an effect of 50% or more. Effects have a minus sign here. Some of the results follow.

The target of this experiment is human ether-à-go-go-related gene (hERG) potassium channel (human, UniProt Q12809). The experiment in a line: primary screen, population patch clamp on CHO cells stably expressing hERG.
human ether-à-go-go-related gene (hERG) potassium channel, sequence (Q12809 whole entry, looked up): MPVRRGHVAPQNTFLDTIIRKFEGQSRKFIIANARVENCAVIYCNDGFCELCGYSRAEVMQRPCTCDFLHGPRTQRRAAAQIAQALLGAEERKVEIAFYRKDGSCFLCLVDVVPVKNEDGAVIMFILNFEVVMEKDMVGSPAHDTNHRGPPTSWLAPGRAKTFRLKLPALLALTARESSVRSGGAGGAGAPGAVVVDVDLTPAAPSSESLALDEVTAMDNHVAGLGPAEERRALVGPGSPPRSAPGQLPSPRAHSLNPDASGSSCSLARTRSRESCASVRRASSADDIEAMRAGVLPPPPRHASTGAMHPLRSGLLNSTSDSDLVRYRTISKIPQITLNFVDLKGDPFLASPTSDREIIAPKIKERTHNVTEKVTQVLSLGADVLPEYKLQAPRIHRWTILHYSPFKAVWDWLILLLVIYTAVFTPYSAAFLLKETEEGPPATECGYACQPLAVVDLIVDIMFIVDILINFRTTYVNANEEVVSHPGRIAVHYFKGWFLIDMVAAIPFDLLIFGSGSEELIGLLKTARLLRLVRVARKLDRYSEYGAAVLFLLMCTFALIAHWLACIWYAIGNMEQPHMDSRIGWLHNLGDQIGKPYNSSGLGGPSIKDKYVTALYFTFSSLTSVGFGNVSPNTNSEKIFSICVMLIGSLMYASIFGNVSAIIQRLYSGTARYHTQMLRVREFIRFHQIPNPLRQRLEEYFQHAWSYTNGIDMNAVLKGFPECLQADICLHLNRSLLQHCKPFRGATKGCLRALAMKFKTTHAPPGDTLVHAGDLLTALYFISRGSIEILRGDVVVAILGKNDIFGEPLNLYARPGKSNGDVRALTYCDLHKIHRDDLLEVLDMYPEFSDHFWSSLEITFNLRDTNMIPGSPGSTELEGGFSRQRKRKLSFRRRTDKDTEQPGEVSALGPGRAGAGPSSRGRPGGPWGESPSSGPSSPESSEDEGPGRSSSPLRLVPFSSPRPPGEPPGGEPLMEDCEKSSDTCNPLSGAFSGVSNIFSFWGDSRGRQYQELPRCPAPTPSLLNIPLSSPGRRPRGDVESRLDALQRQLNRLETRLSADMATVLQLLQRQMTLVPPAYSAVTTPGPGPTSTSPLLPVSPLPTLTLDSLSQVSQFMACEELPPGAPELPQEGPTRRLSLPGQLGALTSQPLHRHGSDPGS
Regarding `COc1ccc(S(=O)(=O)CC(=O)c2cc(C)c(O)c(C)c2)cc1`, the “hERG current change (%, negative = inhibition) at 1uM” value amounted to 12%.

In the case of `COc1cc(C=Nc2ccccc2C(=O)Nc2ccccc2)cc(OC)c1OC`, the “hERG current change (%, negative = inhibition) at 1uM” value was found to be 12.4%.

Turning to `CCCN(CCC)c1nc2ccccc2nc1C(C#N)C(=O)OC(C)COC` (centres unmarked), the “hERG current change (%, negative = inhibition) at 1uM” value was found to be 2.92%.

With `COC(=O)c1cc(Br)ccc1NC(=O)CSCc1c(C)noc1C`, the “hERG current change (%, negative = inhibition) at 1uM” value is 8.44%.

On to `COC(=O)Nc1nnc(-c2ccncc2)s1`, for which the “hERG current change (%, negative = inhibition) at 1uM” value is reported as 10.6%.

For the molecule `CCOC(=O)C1CCN(C(=O)CSc2nnc(-c3ccco3)n2-c2ccccc2)CC1`, the “hERG current change (%, negative = inhibition) at 1uM” value is on record as -2.31%.

On to `Cc1onc(-c2ccccc2Cl)c1C(=O)NCc1nnnn1-c1ccc(F)cc1`, for which the “hERG current change (%, negative = inhibition) at 1uM” value was 3.87%.

In the case of `S=C(NCc1ccc(Cl)cc1)NN1CCOCC1`, the “hERG current change (%, negative = inhibition) at 1uM” value was 16.8%.

On to `Cc1cc(C)c(NC(=O)c2ccoc2C)c(C)c1`, for which the “hERG current change (%, negative = inhibition) at 1uM” value was found to be 7.46%.

For the molecule `O=[N+]([O-])c1ccc(CSc2ncnc3c2ncn3[C@@H]2O[C@H](CO)[C@@H](O)[C@H]2O)cc1`, the “hERG current change (%, negative = inhibition) at 1uM” value was 17.4%.

As to `O=C(COc1ccc(Cl)cc1)c1ccc(O)cc1O`, the “hERG current change (%, negative = inhibition) at 1uM” value is 8.53%.

Regarding `O=C(CNC(=O)/C(=C\c1ccccc1)NC(=O)c1ccc(Br)cc1)OCc1ccccc1`, the “hERG current change (%, negative = inhibition) at 1uM” value is on record as -68.1%.

Take `COC(=O)CC1C(=O)NC2CCCCC2N1C(=O)c1ccccc1` (centres unmarked): the “hERG current change (%, negative = inhibition) at 1uM” value was determined as 5.77%.

As for `CC(C)(C)c1ccccc1NC(=O)C1=COCCO1`, the “hERG current change (%, negative = inhibition) at 1uM” value was -8.88%.

With `COc1ccc(CNC(=O)CN(c2cc(C)cc(C)c2)S(=O)(=O)c2c(C)noc2C)cc1`, the “hERG current change (%, negative = inhibition) at 1uM” value came out at 3.27%.

Take `COc1ccc(CCNC(=O)c2ccn[nH]2)cc1OC`: the “hERG current change (%, negative = inhibition) at 1uM” value is 2.84%.

With `Cc1ccc2nc(Nc3ccc(C)c(C)c3)c3nncn3c2c1`, the “hERG current change (%, negative = inhibition) at 1uM” value stood at 11.7%.

On to `O=C(O)CNC(=S)N(Cc1ccccc1Cl)C1CCCC1`, for which the “hERG current change (%, negative = inhibition) at 1uM” value is listed as 7.28%.

As to `COC(=O)c1ccc(NC(=O)CSc2nnc(C(C)NC(=O)c3ccccc3Cl)n2C)cc1` (centres unmarked), the “hERG current change (%, negative = inhibition) at 1uM” value is listed as 20.5%.

Regarding `Cc1c(C)c2cc(Cl)c(O)c(CN3CCN(C)CC3)c2oc1=O`, the “hERG current change (%, negative = inhibition) at 1uM” value amounted to 11%.

As to `Cc1cc(C)n(-c2ccc(C(=O)N3CCN(S(=O)(=O)c4ccc(Cl)cc4)CC3)cc2)n1`, the “hERG current change (%, negative = inhibition) at 1uM” value was found to be 13%.

For `CCCCc1nc2sc3c(SCCN(C)C)ncnc3c2c2c1CCC2`, the “hERG current change (%, negative = inhibition) at 1uM” value is 13.9%.

As for `O=C(Nc1ccc2c(c1)OCO2)C1CCN(S(=O)(=O)c2cccs2)CC1`, the “hERG current change (%, negative = inhibition) at 1uM” value is given as -3.53%.

On to `O=S(=O)(c1ccc(F)cc1)N1CCc2ccccc2C1`, for which the “hERG current change (%, negative = inhibition) at 1uM” value was found to be 6.14%.

Regarding `Cc1ccc(NC(=O)CNCc2ccccn2)cc1S(=O)(=O)N(C)C`, the “hERG current change (%, negative = inhibition) at 1uM” value is on record as 10.3%.

`CCCCOc1ccc(C(C)NC(=O)C2CCCN(S(=O)(=O)CCC)C2)cc1` (centres unmarked): the “hERG current change (%, negative = inhibition) at 1uM” value is reported as 5.85%.

Regarding `Cc1cnc(CN2CCc3c([nH]c4ccccc34)C2CC(C)C)[nH]1` (centres unmarked), the “hERG current change (%, negative = inhibition) at 1uM” value is reported as -5.73%.

Turning to `Cc1ccc(NC(=O)COC(=O)CN2CCCCCC2=O)c(C)c1`, the “hERG current change (%, negative = inhibition) at 1uM” value is recorded as -6.62%.

On to `COC(=O)C1=COC(C)C2CN3CCC4(C(=O)Nc5ccccc54)C3CC12` (centres unmarked), for which the “hERG current change (%, negative = inhibition) at 1uM” value stood at 3.46%.

`Cc1ccccc1-c1nsc(SCC(=O)Nc2ccc3c(c2)OCO3)n1`: the “hERG current change (%, negative = inhibition) at 1uM” value is listed as 16.1%.

Consider `Cc1cc(=O)oc(C)c1C(=O)NCc1cccnc1`, for which the “hERG current change (%, negative = inhibition) at 1uM” value came to 13.3%.

With `COc1ccc(CCNC(=O)COC(=O)C23CC4CC(CC(Br)(C4)C2)C3)cc1`, the “hERG current change (%, negative = inhibition) at 1uM” value was found to be 24.6%.

With `CC(C)c1nc2oc3c(=O)[nH]cnc3c2c2c1COC(C)(C)C2`, the “hERG current change (%, negative = inhibition) at 1uM” value is recorded as -0.741%.

With `O=C(N=Nc1c(O)[nH]c2ccccc12)c1cc(NS(=O)(=O)c2cccs2)cc(NS(=O)(=O)c2cccs2)c1`, the “hERG current change (%, negative = inhibition) at 1uM” value worked out at 11.3%.

Regarding `C=CCn1cnc2c(c1=O)c1nc3ccccc3nc1n2/N=C/c1cc(OC)c(OC)c(OC)c1`, the “hERG current change (%, negative = inhibition) at 1uM” value came to 16.7%.

Turning to `C(=N\n1cnnc1)/c1ccc2c(c1)OCO2`, the “hERG current change (%, negative = inhibition) at 1uM” value was 7.48%.

Regarding `O=C(NC1CCCCC1)c1ccc2c(c1)OCO2`, the “hERG current change (%, negative = inhibition) at 1uM” value was determined as 17.2%.

Take `COc1cc(/C=C\C(=O)Nc2cc(=O)n(C)c(=O)n2C)cc(OC)c1OC`: the “hERG current change (%, negative = inhibition) at 1uM” value came out at 5.6%.

On to `Cc1ccccc1CCNC(=O)CCn1ccc2cc(S(=O)(=O)N3CCCC3)ccc21`, for which the “hERG current change (%, negative = inhibition) at 1uM” value is listed as 11.1%.

Consider `O=C1CCCN1CC1CCN(Cc2nc(CC3CC3)no2)CC1`, for which the “hERG current change (%, negative = inhibition) at 1uM” value was found to be 8.49%.

As to `Nc1ccccc1SC1CC(=O)N(c2ccc(Cl)c(Cl)c2)C1=O` (centres unmarked), the “hERG current change (%, negative = inhibition) at 1uM” value stood at 14.6%.

For the molecule `CCOc1ccc(C2N(c3ccc(F)cc3)C(=O)C3CCCN32)cc1` (centres unmarked), the “hERG current change (%, negative = inhibition) at 1uM” value was 8.19%.

`O=C(c1ccc(Cl)cc1)N1CCn2c1nc1ccccc12`: the “hERG current change (%, negative = inhibition) at 1uM” value is listed as 7.27%.

`Cc1cccc(C(=O)N[C@@H]2c3ccccc3C[C@@H]2O)n1`: the “hERG current change (%, negative = inhibition) at 1uM” value stood at 10.3%.

Consider `COc1ccc(/C=N/S(=O)(=O)CCc2ccccc2)c(OC)c1`, for which the “hERG current change (%, negative = inhibition) at 1uM” value is reported as 4.56%.

For the molecule `Cc1cc(=O)oc2c(C)c(OC(C)C(=O)NCCCN3CCCC3=O)ccc12` (centres unmarked), the “hERG current change (%, negative = inhibition) at 1uM” value turned out to be 17.5%.

As for `Cc1ccc(NC(=O)C2CCN(S(=O)(=O)c3ccc4c(c3)OCCCO4)CC2)nc1`, the “hERG current change (%, negative = inhibition) at 1uM” value was 0.3%.

For the molecule `Cc1ccccc1OCC(O)CN(Cc1ccccc1O)C1CCCCC1` (centres unmarked), the “hERG current change (%, negative = inhibition) at 1uM” value came to 8.99%.

For the molecule `O=c1[nH]c(=S)n(C2CC2)c(O)c1C=Nc1ccc2c(c1)OCO2`, the “hERG current change (%, negative = inhibition) at 1uM” value is 7.94%.

On to `CCCCCC(=O)O/N=C(\C)c1ccn(S(=O)(=O)c2ccccc2)c1`, for which the “hERG current change (%, negative = inhibition) at 1uM” value is listed as 9.02%.

On to `COc1cc(NC(=O)CCN2CCN(Cc3ccccc3)CC2)cc(OC)c1`, for which the “hERG current change (%, negative = inhibition) at 1uM” value is listed as 9.21%.

For the molecule `CC1Cc2cc(/C(O)=C3/C(=O)C(=O)N(CCCn4ccnc4)C3c3ccco3)ccc2O1` (centres unmarked), the “hERG current change (%, negative = inhibition) at 1uM” value is 7.33%.

On to `COc1ccc(OCC(=O)Nc2ccc(S(=O)(=O)N3CCCC3)cc2)cc1`, for which the “hERG current change (%, negative = inhibition) at 1uM” value is on record as 4.6%.

Take `O=C(Cn1c(=O)oc2cc(S(=O)(=O)N3CCCC3)ccc21)Nc1cccc(C(F)(F)F)c1`: the “hERG current change (%, negative = inhibition) at 1uM” value came to 9.23%.

As for `O=C1c2ccccc2C(Nc2ccc(S(=O)(=O)N3CCOCC3)cc2)N1Cc1ccco1` (centres unmarked), the “hERG current change (%, negative = inhibition) at 1uM” value is recorded as -3.38%.

On to `Cc1ccc(S(=O)(=O)N2CCN(CC(=O)N/N=C\C(Cl)=C\c3ccccc3)CC2)cc1`, for which the “hERG current change (%, negative = inhibition) at 1uM” value was 6.08%.
